According to the RNAGym collection of RNA variant scans (doi:10.1093/nar/gkz1192):
The source gives no read counts; variants with many changes may rest on few reads.

B1: CPEB3 Ribozyme (parent)
chain: UAACAGGGGGCCACAGCAGAAGCGUUCACGUCGCAGCCCCUGUCAGAUUCUGGUGAAUCUGCGAAUUCUGCUGUAUAUCUC

Variants of: B1
Assay: self-cleavage, relative activity (ratio to wild type); higher = more cleavage; in vitro, sequencing
Summary of the method: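 Libraries of CPEB3 self-cleaving ribozyme mutants came from rounds of error-prone PCR and carried barcodes, which DNA sequencing matched to variants. In vitro transcription used T7 RNA polymerase at 37°C for 5 hours, with a further 15 min in DNase I before EDTA stopped the reaction; the ribozymes cleaved during both steps. The RNA was reverse transcribed with template switching and sequenced on Illumina. Relative activity is the cleaved/total read fraction of a variant divided by that of the unmutated ribozyme, averaged over three batches with at least 5 reads.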

Variant	self-cleavage
C11A C27U C32U A56U	0.03
C11A C29G U67C U72C	0.05
C11A C29G U78C	0.07
C11A C29U A35C U41C U43C U66C	0.03
C11A C37U U41A U49C A57U U60G	0.05
C11A C37U U51G U72A	0.12
C11A C38A A45G G61C U66C	0.04
C11A C38U G52A	0.1
C11A C39G U54C	0.2
C11A C40A U66C U78A	0.03
C11A C44A U51A U72G	0.25
C11A G19U U54C A64U U69C	0.05
C11A G24A A47G A64U U69C U74A	0.03
C11A G24A U26A A47G	0.06
C11A G30A U54C	0.09
C11A G33A C40A A56C A57G	0.05
C11A G33A U49C U76A	0.07
C11A U25A U31A	0.07
C11A U25C A56G U67A	0.08
C11A U25C A64G	0.05
C11A U25C C34A A45G U60G C71U U78C	0.02

Variant	self-cleavage
C11A U25C G30A A45G	0.22
C11A U25C U54C U60A	0.05
C11A U26C A35U U41A A47U	0.06
C11A U26C A65G U66C	0.04
C11A U26C C34U U60A	0.05
C11A U26C C38A A57U	0.06
C11A U26C U31A A56U U60A U72C	0.05
C11A U26C U41C A47G U58C	0.15
C11A U26C U76A	0.21
C11A U26G C38A A64G	0.08
C11A U26G C38A G63U A64G	0.19
C11A U31A A35G U54C	0.32
C11A U31A C39A A64G	0.06
C11A U31C A45U A56G	0
C11A U31C U41A A56G U60A	0.06
C11A U31G U60C U72C U76C	0.05
C11A U41A A47G	0.29
C11A U41A U51C U54C A65G U72G	0.07
C11A U43G U48A	0.46
C11A U49C U66C U72C	0.06
C11A U51A U67A U69C G70A	0.07

Variant	self-cleavage
C11A U51C G52A U54C A56G U60A G61U	0.05
C11A U51C U78G	0.14
C11A U54A A57G	0.41
C11A U58C A65G U72C U74C	0.11
C11A U67A U72C	0.2
C11A U69C C71U	0.07
C11A U72A A77U	0.19
C11A U72C A75U	0.6
C11A U72C U78A	0.52
C11G A13C A18G G19A A20G A35C U49C	0.11
C11G A13C U25C A45G	0.05
C11G A13C U48C C50A A77G	0.25
C11G A13G A15G U25C G33A U72C	0.07
C11G A13G A15G U26C C62U	0.05
C11G A13G A15G U31A U51A U58C	0.05
C11G A13G A20U U67C U69A	0.08
C11G A13G A28G A45U	0.08
C11G A13G A35G G52A C68U U76C U78C	0.45
C11G A13G A45G U72C	0.48
C11G A13G A45U U66A U76C	0.04
C11G A13G A45U U67C U69A	0.22

Variant	self-cleavage
C11G A13G A57G U66C U74A	0.27
C11G A13G C23G U48C A65G U72C	0.15
C11G A13G C38A U43C A56U C59U	0.06
C11G A13G G19A	0.07
C11G A13G U51C G61C U67C	0.06
C11G A13G U80C	0.56
C11G A13U A21G U67C U80A	0.1
C11G A13U A28C	0.39
C11G A13U C34G C38U U43C	0.03
C11G A13U C34U	0.25
C11G A13U U31A U54C A56U	0.11
C11G A13U U31C A57G U60A U78C	0.09
C11G A13U U58C U60G	0.1
C11G A13U U76C U78C	0.49
C11G A13U U78G	1.17
C11G A15C A35U C37A U49C A64G	0.05
C11G A15C C29U U48C	0.04
C11G A15G A18U A47G U67C U69C	0.06
C11G A15G A21G A75G	0.05
C11G A15G A35U C37U U43C	0.09
